# The campaign covered roughly 320,000 compounds. About 200 (0.062%) were called active. This list was built around the results that the source calls inconclusive (neither active nor inactive); the mix of calls is not that of the screen. Calls come from the whole dose curve; as a rule, active = well fitted activation curve with a large enough effect; inconclusive = small, poorly fitted or top-dose-only effect; inactive = no such curve, though single readings can be large or run the other way. No potency is given beside an inconclusive call; the fits are too rough.
# Test: qHTS assay for re-activators of p53 using a Luc reporter; note: nearly all actives have a fitted effect of over 45% in size; for activity change, positive = activation: % of control where 0% means no effect
# Settings: H1299 p53-A138V BP100-luciferase reporter, luminescence, 24 h; series mostly up to 92.2 µM; activity change, positive = activation: at the top concentration
# Summary of the method: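 p53-null H1299 cells stably carrying temperature-sensitive p53-A138V and a BP100-luciferase reporter were pinned with compounds (4-point, 1:5 series) and held 24 hrs at 37 deg C. Luminescence was read 10 min after detection reagent.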
# Potency is the fitted concentration of half-maximal effect; tags give direction and shape of the fitted curve.
Compound,Potency,"activity change, positive = activation"
O=C(Nc1sc2c(c1C(=O)O)CCCC2)c1cccc(Cl)c1,"inconclusive [activator, partial curve, poor fit]",
Cc1ccc(-c2ccc(SCC(=O)NC3CCCCC3)nn2)cc1,"inconclusive [activator, partial curve, poor fit]",
O=C(CNC(=S)NC(=O)c1cccs1)c1ccccc1,"inconclusive [activator, single point]",
CC(C)(C)OC(=O)N1CCC(C(=O)Nc2ccc3c(c2)CCC3)CC1,"inconclusive [activator, full curve, poor fit]",
c1ccc(-c2cc(N3CCCCCC3)n[nH]2)cc1,"inconclusive [activator, full curve, poor fit]",
O=C(CN1CCN(c2ccccc2)CC1)c1ccc2cc[nH]c2c1,,inactive: 3.27%
Cc1cc(Cl)c2oc(C(=O)NCCC3CCCCO3)c(C)c2c1 (configuration not stated),"inconclusive [activator, partial curve, poor fit]",
COc1ccc(/C=C2\CCc3ccccc3C2=O)cc1OC,"inconclusive [activator, partial curve, poor fit]",
COc1ccc(C(=O)c2ccc(OC)cc2O)c(O)c1,"inconclusive [activator, partial curve, poor fit]",
COc1cccc(N2C(C(C)=O)=NN(c3ccccc3)C2c2ccc(N3CCOCC3)cc2)c1 (configuration not stated),"inconclusive [activator, partial curve, poor fit]",
CC1CC1C(=O)Nc1nc2ccc(S(C)(=O)=O)cc2s1 (configuration not stated),"inconclusive [activator, partial curve, poor fit]",
COc1cccc(CCC(=O)N2CCC(n3nccc3NC(=O)CC(C)C)CC2)c1,"inconclusive [activator, single point]",
CC(C)c1ccc(C2CC(c3ccc(Br)cc3)=NN2C(N)=S)cc1 (configuration not stated),"inconclusive [activator, partial curve, poor fit]",
Cc1cnc(NC(=O)CC2CCCC2)s1,,inactive: -2.56%
Cc1ccc(Nc2cc(C)c3c(O)cccc3n2)cc1C,"inconclusive [activator, full curve]",
COc1ccc2c(c1)C(=NNc1ccc(C(=O)O)cc1)c1cc(OC)ccc1-2,"inconclusive [activator, partial curve, poor fit]",
Cc1ccc(/C=C/c2ccc3cccc(O)c3n2)s1,"inconclusive [activator, partial curve, poor fit]",
CC(C)(C)c1ccc(S(=O)(=O)N2CCCCC2C(=O)NCc2ccccn2)cc1 (configuration not stated),"inconclusive [activator, single point]",
Cc1ccc(C(=O)Nc2cccc3cccnc23)cc1C,"inconclusive [activator, full curve, poor fit]",
O=C(NC(=S)Nc1cc([N+](=O)[O-])ccc1O)c1ccc2c(c1)OCO2,"inconclusive [activator, partial curve, poor fit]",
Cc1ccc(OC(=O)c2ccc(C)c([N+](=O)[O-])c2)cn1,,inactive: 6.8%

Compound,Potency,"activity change, positive = activation"
O=C(N/N=C/c1cc(Cl)ccc1O)c1ccc(Br)cc1,"inconclusive [activator, partial curve, poor fit]",
O=C(O)/C=C/c1cn(-c2ccccc2)nc1-c1ccc2c(c1)OCCO2,,inactive: -2.2%
CCCCCOC(=O)NCC(O)c1ccccc1 (configuration not stated),"inconclusive [activator, partial curve, poor fit]",
CCOc1ccc(-c2cn3ccccc3n2)cc1[N+](=O)[O-],"inconclusive [activator, partial curve, poor fit]",
C(=C\c1nnc2c3ccccc3ncn12)/c1ccccc1,"inconclusive [activator, partial curve, poor fit]",
Cc1ccc(NC(=O)c2ccc(OC(=O)COc3ccc(Cl)cc3C)cc2)cc1,"inconclusive [activator, partial curve, poor fit]",
COCCNC(=O)c1c[nH]c2ccc(S(=O)(=O)N3CCOCC3)cc2c1=O,,inactive: 5.31%
O=C(c1ccncc1)N(c1ccc2oc3c(c2c1)CCCC3)S(=O)(=O)c1ccc(F)cc1,"inconclusive [activator, single point]",
CN(CC(=O)Nc1ccc(Cl)cc1)C(=O)c1ccc(N2CCCC2=O)cc1,"inconclusive [activator, single point]",
O=C(Nc1ccc(C(=O)N2CCCCC2)cc1)c1cccs1,"inconclusive [activator, partial curve, poor fit]",
COc1ccc(S(=O)(=O)N2CCCCC2)cc1NC(=S)Nc1cccc(Cl)c1C,,inactive: 2.87%
O=C(NCc1ccccc1)c1csc(-c2cccnc2)n1,,inactive: -4.15%
O=C(Nc1nc2ccccc2[nH]1)c1ccc([N+](=O)[O-])cc1,"inconclusive [activator, full curve, poor fit]",
COCCn1c(=NC(=O)c2ccccc2[N+](=O)[O-])sc2cc(S(C)(=O)=O)ccc21,"inconclusive [activator, partial curve, poor fit]",
CCOc1ccccc1NC(=S)Nc1ncccc1C,"inconclusive [activator, single point]",
N#Cc1ccccc1NC(=O)COc1ccc2c(c1)OCO2,"inconclusive [activator, full curve, poor fit]",
Cc1nn(-c2ccccc2)c(C)c1CN,,inactive: -1.3%
Cc1ccccc1Nc1nc(N)nc(CSc2ccccc2)n1,"inconclusive [activator, partial curve, poor fit]",
Cc1sc(NC(=O)c2ccccc2F)c(CN2CCCCC2C)c1C (configuration not stated),"inconclusive [activator, full curve, poor fit]",
COc1ccc(-c2noc(-c3ccc(Cl)cc3[N+](=O)[O-])n2)cc1OC,"inconclusive [activator, full curve, poor fit]",
Cc1c([N+](=O)[O-])c(C(=O)Nc2ccc3c(c2)OCCO3)nn1C,"inconclusive [activator, partial curve, poor fit]",

Compound,Potency,"activity change, positive = activation"
CN(CCO)C1=NS(=O)(=O)c2cc([N+](=O)[O-])ccc21,"inconclusive [activator, single point]",
CSc1nc2ccc3nc(NC(=O)c4cccs4)sc3c2s1,"inconclusive [activator, single point]",
c1ccc(-n2nnnc2Oc2ccc(-c3nnco3)cc2)cc1,"inconclusive [activator, single point]",
Cc1ccc(Cl)c(OCC(=O)OCC(=O)c2ccc[nH]2)c1,,inactive: 5.41%
Cc1nn(-c2ccccc2)c(Cl)c1/C=N/NC(=O)c1ccn[nH]1,"inconclusive [activator, partial curve, poor fit]",
C[C@H](NC(=O)c1nc[nH]c1C(=O)N[C@@H](CCCCN)C(=O)OC(C)(C)C)C(=O)OCc1ccccc1,,inactive: -1.07%
O=c1nc(-c2ccccc2)cc(-c2ccccc2)[nH]1,,inactive: -4.1%
COc1ccccc1NC(=O)c1ccc(NC(=O)COC(=O)C(C)C)cc1,"inconclusive [activator, full curve, poor fit]",
C[C@@H]1CC[C@]2(C(=O)O[C@@H]3O[C@H](CO)[C@@H](O)[C@H](O)[C@H]3O)CC[C@]3(C)C(=CCC4[C@@]5(C)C[C@@H](O)[C@H](O)[C@@](C)(C(=O)O[C@@H]6[C@H](O)C[C@@]7(C)C(CC[C@]8(C)C7CC=C7[C@H]9[C@](C(=O)O[C@@H]%10O[C@H](CO)[C@@H](O)[C@H](O)[C@H]%10O)(CC[C@@H](C)[C@@]9(C)O)CC[C@]78C)[C@@]6(CO)C(=O)O)C5CC[C@]43C)[C@@H]2[C@]1(C)O (some centres not stated),,inactive: -3.59%
CCc1nc(SCC(=O)c2cccc([N+](=O)[O-])c2)n[nH]1,,inactive: -16.9%
CSc1ccccc1OCc1cc(C(=O)N(C)Cc2ccc(C)o2)no1,"inconclusive [activator, partial curve, poor fit]",
Cc1cc(NC(=O)c2ccc(Br)c([N+](=O)[O-])c2)no1,"inconclusive [activator, partial curve, poor fit]",
Nc1c(-c2ccccc2)cnn1-c1cccc(Cl)c1,"inconclusive [activator, full curve, poor fit]",
Oc1ccc2c(c1)C1CCCC1(N1CCOCC1)O2 (configuration not stated),"inconclusive [activator, partial curve, poor fit]",
CCOc1ccccc1N1CCN(C(=O)c2cc(-c3cc(OC)ccc3OC)nc3ccccc23)CC1,,inactive: -10.6%
N/C(=N\OC(=O)c1cccc(F)c1)c1ccccc1,"inconclusive [activator, full curve, poor fit]",
COc1ccc(OCC(=O)Nc2nnc(C)s2)cc1,"inconclusive [activator, partial curve, poor fit]",
O=C1C=C(N2CCOCC2)C2(CCCCC2)O1,,inactive: 12.6%
O=c1[nH]c(C2CCCN(S(=O)(=O)c3ccc(F)cc3)C2)nc2c1nnn2Cc1ccc(F)cc1 (configuration not stated),"inconclusive [activator, single point]",
C=CCOc1c(OC)cc(/C=N/Nc2cccc(C(=O)O)c2)c(Br)c1Br,"inconclusive [activator, partial curve, poor fit]",
